# In all, about 52,000 compounds went through this assay and about 1,700 (3.3%) were called active. Cut-off read from the data, not from the text of the source: active = survival mostly below about 52% (no sharp cut-off); inactive = mostly above about 56%. Some of the results follow.
# Test system: Wild type
# Assay: S. aureus survival, RN4220 and DeltatarO strains – OD600, teichoic acid synthesis inhibitors, primary screen (AID 463173)
# Conditions: S. aureus RN4220 wild type/DeltatarO growth, OD600, 18 h, stronger effect = lower value, screened at 18.75 µg/mL (by protocol)
row,Structure (SMILES),survival
1,O=C(c1c[nH]c2ccc(S(=O)(=O)Nc3ccccc3F)cc2c1=O)N1CCCCCC1,inactive: 79%
2,CCOc1ccc(NC(=O)C(=O)NCCc2sc(-c3ccc(C)cc3)nc2C)cc1,inactive: 55%
3,CC(C)c1ccc(C(=O)CC2(O)C(=O)N(CCc3ccccc3)c3ccc(Cl)cc32)cc1 (centres undefined),inactive: 33%
4,CNC(=O)C1CCC(Cn2c(=O)c3sccc3n(CC(=O)Nc3cc(C)cc(C)c3)c2=O)CC1 (centres undefined),inactive: 65%
5,COc1cccc(NC(=O)Cn2nc(-c3ccncc3)ccc2=O)c1,inactive: 79%
6,CC1CCCCN1CCCNC(=O)c1sc2ncccc2c1-n1cccc1 (centres undefined),inactive: 19%
7,CCC(C)n1c(=N)c(C(=O)NCc2ccco2)cc2c(=O)n3cc(C)ccc3nc21 (centres undefined),inactive: 79%
8,COc1ccc(OC)c(NC(=O)C2CCN(S(=O)(=O)c3c(C)noc3/C=C/c3ccc(C)cc3)CC2)c1,inactive: 83%
9,C[N+]1=C(/C=C/Nc2ccccc2)SCC1,inactive: 111%
10,CCCN1C(=O)c2[nH]nc(-c3ccc(OC)cc3)c2C1c1ccccn1 (centres undefined),inactive: 81%
11,COC(=O)c1sc(N2C(=O)c3oc4cc(C)c(C)cc4c(=O)c3C2c2ccccc2F)nc1C (centres undefined),inactive: 69%
12,Cc1cccc(Cn2c(CN3CCC(C(=O)NCc4ccccc4Cl)CC3)cc3ccccc32)c1,inactive: 78%
13,Cc1ccc(C(=O)Nc2cc(-c3nc4cc(Cl)ccc4o3)ccc2C)c(C)c1,inactive: 79%
14,O=C(O)CCSc1nc2ccccc2o1,inactive: 99%
15,COc1ccc(Cn2c(CNS(=O)(=O)c3ccc(Cl)s3)nc3cccnc32)cc1,inactive: 78%
16,O=S(=O)(NCc1csc(-c2ccccc2)n1)c1ccccc1,inactive: 76%
17,CCOCCCNC(=O)C1CCN(c2nc3ccc(Cl)cc3[nH]2)CC1,inactive: 88%
18,COc1ccc(CN2CCc3nc(N4CCN(c5ccc(F)cc5)CC4)ncc3C2)c(OC)c1OC,inactive: 131%
19,O=C(c1cnn(-c2ccc(F)cc2)c1-n1cccc1)N1CCN(c2cccc(Cl)c2)CC1,inactive: 65%
20,Cc1ccc(NC(=O)c2cnc3cc(C)ccn3c2=O)c(C)c1,inactive: 88%
21,Cc1ccc2[nH]c(C)c(CN3CC(C)OC(C)C3)c(=O)c2c1 (centres undefined),inactive: 109%
22,COc1ccc(-c2cc(C(=O)Nc3cc(C)nn3-c3ccccc3)no2)cc1OC,inactive: 78%
23,CCCCSc1nc(-c2cccc(OC)c2)nc2c1Cc1c(CO)cnc(C)c1O2,inactive: 86%

row,Structure (SMILES),survival
1,O=C(CSc1nnc(-c2ccncc2)o1)Oc1ccccc1,inactive: 103%
2,CC1CCCCN1C(=O)CN1CCSc2ccccc21 (centres undefined),inactive: 76%
3,CCC(=O)Nc1ccc(CC)cc1-c1nc2ccccc2n(CC(=O)c2ccc(OC)cc2)c1=O,inactive: 74%
4,Cc1cc(C)nc(Sc2ccccc2)n1,inactive: 107%
5,Cc1c(Cl)cccc1NC(=O)c1oc2ccc(S(=O)(=O)N3CCC4(CC3)OCCO4)cc2c1C,inactive: 153%
6,O=S(=O)(NCc1ccc(F)cc1)c1ccc2[nH]c3c(c2c1)CCCC3,active: -3%
7,Cc1ccc(-c2cc(NC(=O)c3cccc(C)c3)on2)cc1,inactive: 97%
8,CCc1nonc1NC(=O)c1oc2cc(C)c(C)cc2c1C,inactive: 114%
9,Cc1cc(/C=C(/C#N)C(=O)NCc2ccccc2)c(C)n1-c1cccnc1,inactive: 118%
10,COc1ccc(NC(=O)C2Cc3ccccc3CN2S(=O)(=O)c2ccccc2)cc1OC (centres undefined),inactive: 69%
11,COc1ccc(C(=O)Oc2ccc(C(c3c(C)[nH][nH]c3=O)c3c(C)[nH][nH]c3=O)cc2)cc1,inactive: 68%
12,CCc1cccc(-n2c(=O)c3cccnc3n2CC(=O)Nc2ccc(OC)c(Cl)c2)c1,inactive: 126%
13,CC(C)N1CC2=C(OC(N)=C(C#N)C2c2cccnc2)/C(=C/c2cccnc2)C1 (centres undefined),inactive: 102%
14,CCc1ccccc1NC(=O)CCCn1c(=O)c2cccn2c2ccccc21,inactive: 101%
15,COc1cccc(-n2c(SCC(N)=O)nc3c(oc4ccccc43)c2=O)c1,inactive: 58%
16,O=C1CN(C(=O)Cc2ccccc2)C(c2ccc(F)cc2)c2cc(Br)ccc2N1 (centres undefined),inactive: 66%
17,Cc1cc(S(=O)(=O)Nc2ccc3oc4c(c3c2)CCCC4)ccc1Cl,inactive: 46%
18,CCCc1nn2c(=O)cc(COC(=O)c3ccc(NC(=O)COc4ccccc4F)cc3)nc2s1,inactive: 121%
19,O=C(CCCOc1ccccc1)Nc1ncn[nH]1,inactive: 110%
20,CCOc1ccc(CCNCc2c(C(=O)O)c(C)n(Cc3ccccc3F)c2C)cc1,inactive: 104%
21,Cc1ccc(S(=O)(=O)N2CCc3cc(C(=O)Nc4ccc(Cl)cc4C)ccc32)cc1,inactive: 84%
22,COc1ccc(NS(=O)(=O)c2ccc3c(c2)[C@H]2C=CC[C@H]2[C@@H](c2ccc(C(=O)O)cc2)N3)cc1,inactive: 68%
23,Cc1noc(-c2ccc(-c3noc(-c4ccc([N+](=O)[O-])c(C)c4)n3)cc2)n1,inactive: 53%

row,Structure (SMILES),survival
1,CC1Cc2cc(S(=O)(=O)NCc3ccc(Cl)cc3)ccc2N1C(=O)C1CCC1 (centres undefined),inactive: 74%
2,CC(C)c1ccc(N2C(=O)N(Cc3cccc([N+](=O)[O-])c3)c3ccccc3S2(=O)=O)cc1,inactive: 71%
3,CSc1nc(-c2ccc(Cl)cc2)nn1S(=O)(=O)c1ccc(NC(C)=O)cc1,inactive: 102%
4,CCOc1ccc(NC(=O)[C@@H](c2ccccc2)N2Cc3ccccc3C2=O)cc1,inactive: 79%
5,Cc1cccn2c(=O)c(C(=O)N3CCN(c4ccc(Cl)cc4)CC3)cnc12,inactive: 87%
6,CCN(CC)c1ccc(NC(=O)CCc2c(C)nc3ncnn3c2C)c(C)c1,inactive: 119%
7,COc1cc(C2C(C(=O)Nc3ccccc3C)=C(C)Nc3nc(SCc4cc(C)ccc4C)nn32)ccc1O (centres undefined),inactive: 119%
8,O=S(=O)(NCCc1csc2nc(-c3ccccc3)nn12)c1ccc(Oc2ccccc2)cc1,inactive: 57%
9,O=C(CSc1nnc(-c2ccccc2)o1)NC1CCCC1,inactive: 103%
10,Cc1ccc(-n2nnnc2CNC(=O)C2CC(=O)N(c3ccccc3)C2)cc1C (centres undefined),inactive: 68%
11,CC(=O)OCC1OC(OC(C)=O)C(NC(=O)C(C)C)C(OC(C)=O)C1OC(C)=O (centres undefined),inactive: 108%
12,Cc1ccc(Cl)cc1N1CCN(C(=O)c2noc3c2CCCC3)CC1,inactive: 73%
13,COc1ccc(Cl)cc1NC(=O)Cn1nnc2sc(-c3ccccc3)cc2c1=O,inactive: 73%
14,CN(C)c1ccc(NC(=O)Cn2cc(S(=O)(=O)Cc3ccccc3Cl)c3ccccc32)cc1,inactive: 71%
15,CCOC(=O)c1ccc(NC(=O)CSc2ncc(S(=O)(=O)c3ccc(C)c(Cl)c3)c(=O)[nH]2)cc1,inactive: 71%
16,Fc1ccccc1N1CCN(c2ncnc3c2nc2n3CCCC2)CC1,inactive: 72%
17,Clc1cccc(-n2ncc3c(NC4CCCCCC4)ncnc32)c1,inactive: 81%
18,COc1ccc(CCNC(=O)CCCCn2c(=O)c3ccccc3n(Cc3ccccc3)c2=O)cc1OC,inactive: 98%
19,CCOc1ccc(NC(=O)Cn2cc(C(=O)c3ccc(C)cc3)c(=O)c3cc4c(cc32)OCO4)cc1,inactive: 62%
20,CCc1ccc(CN(Cc2ccco2)C(=O)c2cc(-c3ccc(C)c(F)c3)on2)cc1,inactive: 118%
21,CCOCCc1nn2c(=O)cc(COC(=O)c3ccccc3NC(=O)c3ccc(C)cc3)nc2s1,inactive: 88%
22,CCn1cc2nc(SCC(=O)Nc3ccc(OC)cc3OC)n(Cc3ccc(Cl)cc3)c(=O)c2n1,inactive: 68%
23,CCCCN(C)c1nnc(NC(=O)Nc2ccc(Br)c(C)c2)s1,inactive: 88%

row,Structure (SMILES),survival
1,Cc1ccc2nc3c(c(Nc4ccc(C)c(C)c4)c2c1)CCC3,inactive: 39%
2,CCn1c2c(c(=O)n3ncc(C(=O)Nc4ccc(Cl)cc4C)c13)CN(Cc1ccc(OC)cc1)CC2,inactive: 76%
3,Brc1cccc(-c2nnn3c2nc(N2CCCCC2)c2ccccc23)c1,inactive: 76%
4,Cc1ccc(F)cc1S(=O)(=O)N1CCC(c2nc3ccccc3s2)CC1,inactive: 96%
5,COC(=O)Cn1c(C(=O)OC)cc2c1ccn2-c1ccc(F)cc1,inactive: 126%
6,CCCn1c(=O)c2sccc2n2c(CCCC(=O)NC3CCCCC3)nnc12,inactive: 86%
7,O=C(CNS(=O)(=O)c1cccs1)N1CCN(c2ccccc2F)CC1,inactive: 60%
8,COc1ccc(C2C=C(c3ccc(Cl)cc3)Nc3nc(NC(=O)CCC(=O)O)nn32)cc1 (centres undefined),inactive: 83%
9,Cc1ccccc1Nc1c(-c2c[nH]c3ccccc23)nc2cccc(C)n12,inactive: 148%
10,Cc1ccccc1Cn1c(C)c(CNCCCc2ccccc2)c(C(=O)O)c1C,inactive: 98%
11,Cc1ccc(N(Cc2cccs2)C(=O)c2ccccc2[N+](=O)[O-])cc1,inactive: 82%
12,Cc1ccc(NC(=O)CCc2nc3cccnc3n2-c2ccccc2)cc1Cl,inactive: 74%
13,COc1ccc(-c2csc3nc(-c4ccc(C)cc4)oc(=O)c23)cc1OC,inactive: 100%
14,O=c1c2sc3ccccc3c2n(Cc2ccc(Cl)cc2)c(=O)n1Cc1ccco1,inactive: 77%
15,O=C(Nc1ccc(F)cc1Cl)c1cnc(N2CCOCC2)c2ccccc12,inactive: 126%
16,CCCOc1cccc(C(=O)N2CCCCC2CCN2CCCCC2)c1 (centres undefined),inactive: 85%
17,CCC(C)NC(=O)Cn1c(=O)c2cccn2c2ccc(F)cc21 (centres undefined),inactive: 88%
18,COc1cccc(CNC(=O)c2cc(=O)[nH]c3ccc(S(=O)(=O)N4CCCC4)cc23)c1,inactive: 92%
19,Cc1ccccc1NC(=O)CCn1nc(-c2ccc(Cl)cc2)c2ccccc2c1=O,inactive: 121%
20,CS(=O)(=O)N(CC(=O)N1CCCCC1)C1CCCCC1,inactive: 101%

# Source: PubChem BioAssay AID463173 (ICCB-Longwood Screening Facility, Harvard Medical School, 2010)
